# The supplement of paper PMC8728848
# The list shows a part of the results.
# B1: PLU (Photorhabdus luminiscence) (protein)
# chain: HHHHHHENLYFQSSIVFASIDPRSNPLQTSSQNYVDIPGLKLDVSKYSNSPCLTALITLNIPTPYASGNNFPGGNFAIVTDQGEQLAYGGFTYSSKIPENSGRMPFTLVARYSLASNVSTIKAQWSNIRGSTVHIDSYASISAVIQCNQLV
# Experiments:
# Assay in all cases: glycan array binding signal (z-score within array); higher = stronger binding
# Settings in all cases: glycan notation: IUPAC condensed, linker removed
# Fuc(a1-2)Gal = biological target: Fuc(a1-2)Gal
# How it was run: (§1)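 The Consortium for Functional Glycomics database supplied 3228 glycan arrays, of which those lacking an available protein sequence were dropped. The binding signal, a within-array Z-score, was averaged across arrays of the same protein sequence and across linkers. Negative scores can be read as non-binding.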
# Fuc(a1-2)Gal(b1-3)GalNAc = biological target: Fuc(a1-2)Gal(b1-3)GalNAc
# How it was run: as §1
# [1] = biological target: Fuc(a1-2)Gal(b1-3)GalNAc(a1-3)[Fuc(a1-2)]Gal(b1-4)Glc
# How it was run: as §1
# [2] = biological target: Fuc(a1-2)Gal(b1-3)GalNAc(a1-3)[Fuc(a1-2)]Gal(b1-4)GlcNAc
# How it was run: as §1
# [3] = biological target: Fuc(a1-2)Gal(b1-3)GalNAc(b1-3)Gal
# How it was run: as §1
# [4] = biological target: Fuc(a1-2)Gal(b1-3)GalNAc(b1-3)Gal(a1-4)Gal(b1-4)Glc
# How it was run: as §1
# [5] = biological target: Fuc(a1-2)Gal(b1-3)GalNAc(b1-4)[Neu5Ac(a2-3)]Gal(b1-4)Glc
# How it was run: as §1
# Fuc(a1-2)Gal(b1-3)GlcNAc = biological target: Fuc(a1-2)Gal(b1-3)GlcNAc
# How it was run: as §1
# [6] = biological target: Fuc(a1-2)Gal(b1-3)GlcNAc(b1-2)Man(a1-3)[Fuc(a1-2)Gal(b1-3)GlcNAc(b1-2)Man(a1-6)]Man(b1-4)GlcNAc(b1-4)GlcNAc
# How it was run: as §1
# [7] = biological target: Fuc(a1-2)Gal(b1-3)GlcNAc(b1-2)Man(a1-3)[Fuc(a1-2)Gal(b1-3)GlcNAc(b1-2)Man(a1-6)]Man(b1-4)GlcNAc(b1-4)[Fuc(a1-6)]GlcNAc
# How it was run: as §1
# [8] = biological target: Fuc(a1-2)Gal(b1-3)GlcNAc(b1-3)Gal(b1-4)Glc
# How it was run: as §1
# [9] = biological target: Fuc(a1-2)Gal(b1-3)GlcNAc(b1-3)GalNAc
# How it was run: as §1
# [10] = biological target: Fuc(a1-2)Gal(b1-3)GlcNAc(b1-3)[Fuc(a1-2)Gal(b1-3)GlcNAc(b1-6)]GalNAc
# How it was run: as §1
# [11] = biological target: Fuc(a1-2)Gal(b1-3)GlcNAc(b1-3)[Gal(b1-4)GlcNAc(b1-6)]Gal(b1-4)Glc
# How it was run: as §1
# [12] = biological target: Fuc(a1-2)Gal(b1-3)GlcNAc(b1-3)[Neu5Ac(a2-6)Gal(b1-4)GlcNAc(b1-6)]Gal(b1-4)Glc
# How it was run: as §1
# [13] = biological target: Fuc(a1-2)Gal(b1-3)GlcNAc6S
# How it was run: as §1
# [14] = biological target: Fuc(a1-2)Gal(b1-3)[Fuc(a1-4)]GlcNAc
# How it was run: as §1
# [15] = biological target: Fuc(a1-2)Gal(b1-3)[Fuc(a1-4)]GlcNAc(b1-2)Man(a1-3)[Fuc(a1-2)Gal(b1-3)[Fuc(a1-4)]GlcNAc(b1-2)Man(a1-3)]Man(b1-4)GlcNAc(b1-4)GlcNAc
# How it was run: as §1
# [16] = biological target: Fuc(a1-2)Gal(b1-3)[Fuc(a1-4)]GlcNAc(b1-2)Man(a1-3)[Fuc(a1-2)Gal(b1-3)[Fuc(a1-4)]GlcNAc(b1-2)Man(a1-6)]Man(b1-4)GlcNAc(b1-4)[Fuc(a1-6)]GlcNAc(b1-4)[Fuc(a1-6)]GlcNAc
# How it was run: as §1
# [17] = biological target: Fuc(a1-2)Gal(b1-3)[Fuc(a1-4)]GlcNAc(b1-3)[Fuc(a1-3)[Gal(b1-4)]GlcNAc(b1-6)]Gal(b1-4)Glc
# How it was run: as §1
# [18] = biological target: Fuc(a1-2)Gal(b1-3)[Fuc(a1-4)]GlcNAc(b1-3)[Gal(b1-4)GlcNAc(b1-6)]Gal(b1-4)Glc
# How it was run: as §1
# Fuc(a1-2)Gal(b1-4)Glc = biological target: Fuc(a1-2)Gal(b1-4)Glc
# How it was run: as §1
# Fuc(a1-2)Gal(b1-4)Glc6S = biological target: Fuc(a1-2)Gal(b1-4)Glc6S
# How it was run: as §1
# Fuc(a1-2)Gal(b1-4)GlcNAc = biological target: Fuc(a1-2)Gal(b1-4)GlcNAc
# How it was run: as §1
# [19] = biological target: Fuc(a1-2)Gal(b1-4)GlcNAc(b1-2)Man
# How it was run: as §1
# [20] = biological target: Fuc(a1-2)Gal(b1-4)GlcNAc(b1-2)Man(a1-3)[Fuc(a1-2)Gal(b1-4)GlcNAc(b1-2)Man(a1-6)]Man(b1-4)GlcNAc(b1-4)GlcNAc
# How it was run: as §1
# [21] = biological target: Fuc(a1-2)Gal(b1-4)GlcNAc(b1-2)Man(a1-3)[Fuc(a1-2)Gal(b1-4)GlcNAc(b1-2)Man(a1-6)]Man(b1-4)GlcNAc(b1-4)[Fuc(a1-6)]GlcNAc
# How it was run: as §1
# [22] = biological target: Fuc(a1-2)Gal(b1-4)GlcNAc(b1-2)[Fuc(a1-2)Gal(b1-4)GlcNAc(b1-4)]Man(a1-3)[Fuc(a1-2)Gal(b1-4)GlcNAc(b1-2)Man(a1-6)]Man(b1-4)GlcNAc(b1-4)GlcNAc
# How it was run: as §1
# [23] = biological target: Fuc(a1-2)Gal(b1-4)GlcNAc(b1-3)Gal(b1-4)GlcNAc
# How it was run: as §1
# [24] = biological target: Fuc(a1-2)Gal(b1-4)GlcNAc(b1-3)Gal(b1-4)GlcNAc(b1-2)Man(a1-3)[Fuc(a1-2)Gal(b1-4)GlcNAc(b1-3)Gal(b1-4)GlcNAc(b1-2)Man(a1-6)]Man(b1-4)GlcNAc(b1-4)GlcNAc
# How it was run: as §1
# [25] = biological target: Fuc(a1-2)Gal(b1-4)GlcNAc(b1-3)Gal(b1-4)GlcNAc(b1-3)Gal(b1-4)GlcNAc
# How it was run: as §1
# [26] = biological target: Fuc(a1-2)Gal(b1-4)GlcNAc(b1-3)GalNAc
# How it was run: as §1
# [27] = biological target: Fuc(a1-2)Gal(b1-4)GlcNAc(b1-3)[Fuc(a1-2)Gal(b1-4)GlcNAc(b1-6)]GalNAc
# How it was run: as §1
# [28] = biological target: Fuc(a1-2)Gal(b1-4)GlcNAc(b1-3)[Fuc(a1-3)[Gal(b1-4)]GlcNAc(b1-6)]Gal(b1-4)Glc
# How it was run: as §1
# [29] = biological target: Fuc(a1-2)Gal(b1-4)GlcNAc(b1-6)GalNAc
# How it was run: as §1
# [30] = biological target: Fuc(a1-2)Gal(b1-4)GlcNAc6S
# How it was run: as §1
# [31] = biological target: Fuc(a1-2)Gal(b1-4)[Fuc(a1-3)]GlcNAc
# How it was run: as §1
binder,measurement,setting,value
B1,glycan array binding signal (z-score),Fuc(a1-2)Gal,-0.16
same,glycan array binding signal (z-score),Fuc(a1-2)Gal(b1-3)GalNAc,-0.206
same,glycan array binding signal (z-score),[1],0.208
same,glycan array binding signal (z-score),[2],0.604
same,glycan array binding signal (z-score),[3],-0.305
same,glycan array binding signal (z-score),[4],-0.183
same,glycan array binding signal (z-score),[5],-0.274
same,glycan array binding signal (z-score),Fuc(a1-2)Gal(b1-3)GlcNAc,0.026
same,glycan array binding signal (z-score),[6],0.189
same,glycan array binding signal (z-score),[7],-0.225
same,glycan array binding signal (z-score),[8],-0.211
same,glycan array binding signal (z-score),[9],-0.233
same,glycan array binding signal (z-score),[10],-0.17
same,glycan array binding signal (z-score),[11],-0.284
same,glycan array binding signal (z-score),[12],-0.358
same,glycan array binding signal (z-score),[13],0.008
same,glycan array binding signal (z-score),[14],5.25
same,glycan array binding signal (z-score),[15],-0.247
same,glycan array binding signal (z-score),[16],1.1
same,glycan array binding signal (z-score),[17],0.083
same,glycan array binding signal (z-score),[18],1.53
same,glycan array binding signal (z-score),Fuc(a1-2)Gal(b1-4)Glc,1.95
same,glycan array binding signal (z-score),Fuc(a1-2)Gal(b1-4)Glc6S,-0.189
same,glycan array binding signal (z-score),Fuc(a1-2)Gal(b1-4)GlcNAc,2.67
same,glycan array binding signal (z-score),[19],-0.261
same,glycan array binding signal (z-score),[20],-0.141
same,glycan array binding signal (z-score),[21],-0.136
same,glycan array binding signal (z-score),[22],-0.106
same,glycan array binding signal (z-score),[23],1.48
same,glycan array binding signal (z-score),[24],2.78
same,glycan array binding signal (z-score),[25],1.92
same,glycan array binding signal (z-score),[26],-0.262
same,glycan array binding signal (z-score),[27],-0.21
same,glycan array binding signal (z-score),[28],-0.179
same,glycan array binding signal (z-score),[29],-0.243
same,glycan array binding signal (z-score),[30],-0.234
same,glycan array binding signal (z-score),[31],3.55
